Source: PubChem BioAssay AID1347417 (National Center for Advancing Translational Sciences (NCATS), 2020)
The whole screen tested about 120,000 compounds, of which about 5,300 (4.4%) were called active. The shares of active, inactive and inconclusive entries below differ from those in the screen. Calls come from the whole dose curve; as a rule, active = well fitted inhibition curve with a large enough effect; inconclusive = small, poorly fitted or top-dose-only effect; inactive = no such curve, though single readings can be large or run the other way. Where the call is inconclusive, the potency comes from a doubtful curve fit.

Experiment: qHTS Primary assay for Inhibitors of Plasmodium falciparum Dd2 growth in vitro; note: nearly all actives have a fitted effect of over 65% in size;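 for activity, negative = inhibition: plate controls were DMSO vehicle for no effect and reference drug for full effect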
Conditions: P. falciparum Dd2 growth, SYBR Green, 72 h; activity, negative = inhibition: at 28.9 µM (top of the series) unless noted; series mostly up to 28.9 µM
Description: Malaria, a parasitic disease spread to humans through the bite of a Plasmodium infected Anopheles mosquito, continues to be a global health burden affecting millions of people, with an estimated 228 million cases and 405,000 deaths in 2018. Concerns about safety and limitations of current antimalarial treatments strongly emphasize the need to develop new therapeutic options. The scarce number of chemotypes and validated drug targets with efficacy against the liver stage, have hindered development of new antimalarials. To address this, a chemoprophylactic drug discovery effort was conducted through a combined phenotypic high-throughput asexual blood stage and liver stage screen, providing a robust foundation to identify liver-stage active lead chemotypes. Compounds were initially screened against Plasmodium falciparum Dd2 strain parasites using a in vitro SYBRGreen-1 based 72 hr proliferation assay to identify novel chemotypes to advance to liver stage assays. NIH/NCATS Early Translation Branch Assay Submitter (PI): Anton Simeonov Ph.D.
Malaria-vivax Assay Protocol: PROTOCOL TABLE (as described by Inglese et al., 2007) SEQUENCE No. (e.g., 1, 2, 3, etc.); […] (e.g., Cells, Incubation, Reagent, etc.); VALUE; DESCRIPTION SEQUENCE, Parameter, Description 1; Reagent; 3 uL complete malaria growth medium, 1536 TC treated Black clear bottom plate 2; Controls; 23 nL positive control artesunate (300 nM final) to column 1; Neutral control DMSO to columns 2-4 3; Compound; 23 nL of compounds in dose response concentration (29 uM to 0.5 nM final) 4; Reagent; 5 uL malaria infected red blood cells (2.5% hematocrit final, 0.3% parasitemia 5; Time; 72 hours at 37C (5% O2, 5% CO2, 90% N2; 95% Rh) 6; Reagent; 2 uL lysis buffer/SYBRGreen-1, 25 sec shake immediately following dispense 7; Time; ~16 hours at 37C (5% O2, 5% CO2, 90% N2; 95% Rh) 8; Detector; EnVision (PerkinElmer) bottom read at 485/14nm excitation and 535/25 nm emission NOTES (numbers refer to sequence above): 1; Complete Malaria Growth Media: 1X RPMI-1640 w/L-glutamine, 5.5g/L Albumax II, 367 uM Hypoxanthine, 25 mM HEPES, 0.25% Sodium Bicarbonate, 35 uM Gentamicin sulfate 2; Controls were added using the Kalypsis Pintool (Wako USA) equipped with 1536 pinhead 3; Compounds were added in a 7-point, titration with a high final concentration of 29 uM by Pintool from seven inter-plate titrations of library plates and two DMSO control plates at the beginning and end (see Yasgar et al., 2008). 4; Red blood cells infected with Plasmodium falciparum Dd2 parasites were used. 6; Lysis buffer: 20 mM Tris-HCl, 10 mM EDTA, 0.16% Saponin, 1.6% Triton-X, 10X SYBR Green. REFERENCE: Inglese J, Shamu CE, Guy RK. 2007. Reporting data from high-throughput screening of small-molecule libraries. Nat Chem Biol. doi:10.1038/nchembio0807-438 Yasgar A, Shinn P, Jadhav A, Auld D, Michael S, Zheng W, Austin CP, Inglese J, Simeonov A. 2008. Compound Management for Quantitative High-Throughput Screening. J Lab Autom 13:79-89. doi:10.1016/j.jala.2007.12.004
Potency is the fitted concentration of half-maximal effect; tags give direction and shape of the fitted curve.

SMILES | activity, negative = inhibition | Potency | outcome
O=S(=O)(NCCc1noc(-c2ccncc2)n1)c1ccc(F)cc1 | inactive: -20.7% |  | 
CNC(=O)[C@@H]1C[C@H](Oc2cccnc2)CN1C(=O)c1ccc(OC)nc1 | inactive: 23.8% |  | 
Cc1ccc(-n2ncc(C(=O)NCCCN3CCc4ccccc4C3)c2C2CCN(C(=O)OC(C)(C)C)CC2)c(C)c1 |  | active: 7.08 µM | 
Cc1cccc(OCCc2noc(C3CN(C(=O)Cn4ccnc4)C3)n2)c1 |  | inconclusive: 20 µM [inhibitor, single point] | 
CCCCOc1ccc(C2C(=O)N(C3CCCCC3)CC(=O)N2CCCC)cc1 (stereo not given) |  | inconclusive: 17.8 µM [inhibitor, single point] | 
O=c1ccc(-c2ccccc2)c2n1C[C@H]1C[C@@H]2CN(Cc2ccc(CO)o2)C1 |  | inconclusive: 22.4 µM [inhibitor, single point] | 
Cc1cc(C)cc(C(=O)N2CC(=O)Nc3ccc(Br)cc3C2c2ccccc2)c1 (stereo not given) |  | inconclusive: 7.08 µM [inhibitor, partial curve, poor fit] | 
CCN1C(=O)CN(C(=O)CC(C)C)CC12CCOCC2 |  | inconclusive: 11.2 µM [inhibitor, single point] | 
Cc1cccc(Cl)c1NC(=O)Cn1c(C)cc2nc3n(c(=O)c21)CCCC3 |  |  | inactive
COCC1CN(C2CCC2)CC12CCN(C(=O)CCC1CCCC1)CC2 (stereo not given) |  | inconclusive: 7.08 µM [inhibitor, partial curve, poor fit] | 
COc1ccc2c(c1)C1(CCN(C(=O)Nc3ccccc3OC)C1)C(=O)N2 (stereo not given) | inactive: 23.6% |  | 
Cc1noc2c(N(C)C)cc(-c3ccsc3)nc12 | inactive: 20.4% [at 44.1 µM] |  | 
Cc1nc(CN2CC3(CCN(C)C3)c3cc(C(=O)NCC4CC4)ccc32)cs1 (stereo not given) |  | inconclusive: 35.5 µM [inhibitor, single point] | 
Cc1ccc(NC(=O)N2CCc3c(C(=O)NCCCN4CCCC4=O)cccc32)cc1 |  | inconclusive: 3.98 µM [inhibitor, single point] | 
CCOc1ccccc1C(=O)N1CCC2(CC1)NC(=O)N(c1ccccc1)N2 |  | inconclusive: 7.94 µM [inhibitor, single point] | 
CCOC(=O)c1cccc(NC(=O)[C@H](CSCc2ccccc2)N2Cc3ccccc3C2=O)c1 |  | inconclusive: 10 µM [inhibitor, single point] | 
COCC(=O)N[C@@H]1CN(Cc2cccc(F)c2F)C[C@H]1CO | inactive: -14.8% |  | 
COc1cccc(C(=O)N2CCc3nc(-c4ccc(Cl)cc4)nc(-c4ccccc4)c3C2)c1 | inactive: -10.2% |  | 
C#CC(C)(CC)NC(=O)Cn1nnc(-c2ccc(OCc3c(F)cccc3Cl)cc2)n1 (stereo not given) |  | inconclusive: 11.2 µM [inhibitor, single point] | 
COc1ccc2ccc(OCc3nc(C(=O)NCc4cnc(C)cn4)co3)cc2c1 |  | inconclusive: 20 µM [inhibitor, single point] | 
Cc1noc(C)c1-c1cc2c(c(-c3cccc(OC(C)C)c3)c1)C(=O)N(C)C2 |  | inconclusive: 12.6 µM [inhibitor, single point] | 
CC(C)CN1C(=O)COC[C@@H]1[C@H](O)c1ccc(NC(=O)Cc2ccccc2)cc1 |  | inconclusive: 15.8 µM [inhibitor, single point] | 

SMILES | activity, negative = inhibition | Potency | outcome
CC(C)CCn1c(SCc2cccc(F)c2)nc2ccsc2c1=O |  | inconclusive: 10 µM [inhibitor, single point] | 
CCCCNC(=O)N1CC(C(=O)N2CCCC(C(=O)OCC)C2)CC(c2ccc(F)c(C)c2)C1 (stereo not given) |  | inconclusive: 3.16 µM [inhibitor, single point] | 
O=C(Nc1cccc2ccccc12)N[C@H]1CO[C@H]2[C@@H]1OC[C@@H]2n1nnnc1-c1ccc2c(c1)OCO2 | inactive: -29.9% |  | 
O=C(NC1CCCN(CCc2ccccc2)C1)C1(Cn2cccn2)CC1 (stereo not given) |  | inconclusive: 11.2 µM [inhibitor, single point] | 
COc1ccc(-c2nc(C3CC3)nc3c2CCN(C(=O)c2ccccc2)CC3)cc1 |  | inconclusive: 10 µM [inhibitor, single point] | 
O=c1[nH]c(C2CCCN(S(=O)(=O)c3ccccc3)C2)nc2c1nnn2Cc1ccc(OC(F)(F)F)cc1 (stereo not given) |  | inconclusive: 11.2 µM [inhibitor, single point] | 
O=C(COc1ccc(-c2nnc3n2CCCC3)cc1)NCc1ccccc1Br |  | inconclusive: 3.98 µM [inhibitor, single point] | 
O=c1c2nc(-c3ccoc3)ccc2ncn1Cc1ccccc1 |  | inconclusive: 12.6 µM [inhibitor, partial curve, poor fit] | 
O=C(C1CCC(Cn2c(=O)c3sccc3n(Cc3ccc(F)cc3)c2=O)CC1)N1CCOCC1 (stereo not given) |  | inconclusive: 11.2 µM [inhibitor, partial curve] | 
CC(=O)Nc1ccc(S(=O)(=O)N[C@H]2CO[C@H]3[C@@H]2OC[C@H]3OC(=O)Nc2ccccc2)cc1 |  | inconclusive: 7.08 µM [inhibitor, partial curve, poor fit] | 
COCC(=O)N1CCc2cn(CC(C)C)c3cccc(c23)C1 |  | inconclusive: 0.282 µM [inhibitor, full curve, poor fit] | 
Cc1cc(C(=O)N[C@H](C)c2c(-c3ccc(F)cc3)noc2C(=O)O)c(C)o1 | inactive: 13.1% [at 44.1 µM] |  | 
CC(C)CNC(=O)N1CC(Oc2ccc(-c3nc(-c4ccccc4)no3)cc2)C1 | inactive: 23.4% [at 5.79 µM] |  | 
COCCOCc1nc(C2CCCCN2C(=O)Nc2cccc(C(F)(F)F)c2)no1 (stereo not given) |  | inconclusive: 11.2 µM [inhibitor, single point] | 
CCCc1cnc2c(c1SCc1cccc(F)c1)c(=O)n(C)c(=O)n2C |  | inconclusive: 11.2 µM [inhibitor, partial curve, poor fit] | 
COc1ccc(-c2noc([C@@H]3CCCN3C(=O)c3ccccc3Cl)n2)cc1 |  | inconclusive: 11.2 µM [inhibitor, single point] | 
Cc1cccc(-c2ccc3c(c2)C(=O)N2C[C@H](O)C[C@H]2C(=O)N3)c1C |  | inconclusive: 0.1 µM [inhibitor, full curve, poor fit] | 
Cc1ccc(NC(=O)Cn2c(=O)n(Cc3ccc4c(c3)OCO4)c(=O)c3ccccc32)cc1 |  | inconclusive: 17.8 µM [inhibitor, single point] | 
Cc1ccc(C(=O)c2cn(Cc3ccccc3C)c3nc(C)ccc3c2=O)cc1 |  | inconclusive: 10 µM [inhibitor, partial curve, poor fit] | 
COc1ccc(-c2nc(SCC(=O)NC3CCCC3)c(-c3ccc(C)cc3)[nH]2)cc1OC |  | inconclusive: 17.8 µM [inhibitor, single point] | 
CCOc1ccc(NC(=O)C(=O)NCC(c2cccnc2)N2CCc3ccccc32)cc1 (stereo not given) |  | inconclusive: 17.8 µM [inhibitor, single point] | 
COc1ccc(C2CC(=O)N(CC(=O)Nc3ccc(C)c(Cl)c3)c3ccccc3S2)cc1OC (stereo not given) |  | inconclusive: 17.8 µM [inhibitor, single point] | 

SMILES | activity, negative = inhibition | Potency | outcome
CCn1cc(S(=O)(=O)NC2CCCN(C3CCCCCC3)C2)cn1 (stereo not given) |  | inconclusive: 10 µM [inhibitor, partial curve, poor fit] | 
Cn1ccnc1-c1nccn1CC(CO)Cc1ccsc1 (stereo not given) | inactive: -4.68% |  | 
Cc1ccccc1NC(=O)CCN1C(=O)c2ccccc2Sc2ncccc21 | inactive: 6.61% |  | 
COc1ccc(-c2nc3c(c(=O)[nH]2)CCN(C(=O)CSc2ccccc2)C3)cc1 |  | active: 4.47 µM | 
COc1ccc(C(=O)N2C[C@@H]3C[C@H](C2)c2c(NC(=O)c4ccc5c(c4)OCO5)ccc(=O)n2C3)cc1 | inactive: 14.1% |  | 
COc1ncccc1-c1ccc2onc(C)c2n1 | inactive: 17.7% [at 44.1 µM] |  | 
Cc1ccc2nc([C@H]3CCN(Cc4ccc(S(C)(=O)=O)cc4)C3)[nH]c2c1 |  | inconclusive: 15.8 µM [inhibitor, single point] | 
Cc1cc(C(=O)N[C@H]2CCOC[C@H]2C2CCOCC2)ccc1N1CCOCC1 | inactive: -1.42% |  | 
CCCNC(=O)N(C1CCOCC1)C1CCN(C(=O)Cc2c(F)cccc2Cl)CC1 | inactive: -17.6% |  | 
CC(C)N1CCC[C@H]1c1nc(-c2ccc(N3CCN(C)CC3)nc2)no1 |  | active: 10 µM | 
COc1ccc(-c2nc3ncccc3[nH]2)cc1 | inconclusive: -111% [inhibitor] [at 44.1 µM] | inconclusive: 12.6 µM [inhibitor, partial curve] | 
Cc1cc(N(CCO)Cc2ccccc2)n2nc(-c3ccc(C(C)(C)C)cc3)nc2n1 |  | inconclusive: 11.2 µM [inhibitor, single point] | 
Cc1cccn2c(=O)c(/C=C(\C#N)c3nc4ccccc4s3)c(Oc3ccc(F)cc3)nc12 |  | active: 3.16 µM | 
O=C1[C@@H]2C[C@@H](CN2Cc2ccc3c(c2)OCO3)Oc2ccccc2N1CC1CC1 |  | active: 12.6 µM | 
COc1ccc(-c2nc(CN3C(=O)CN=C(c4ccccc4)c4cc(Cl)ccc43)c(C)o2)cc1 |  | inconclusive: 12.6 µM [inhibitor, single point] | 
O=C1NCc2ccccc2CC12CCN(Cc1cnc3ccccc3c1)CC2 |  | inconclusive: 15.8 µM [inhibitor, single point] | 
O=C1NC2(CCNCC2)C(=O)N1CCCc1cccnc1 | inactive: -2.84% |  | 
COc1cc2c(cc1OC)C(COc1ccc(F)cc1)N(C(=O)c1cccc(F)c1)CC2 (stereo not given) |  | inconclusive: 11.2 µM [inhibitor, single point] | 
COc1ccc(NC(=O)Cn2ccn3nc(-c4ccc(F)cc4)c(CO)c3c2=O)cc1OC |  | inconclusive: 11.2 µM [inhibitor, partial curve, poor fit] | 
CN1CCN(C(=O)Cn2ncc3c4ccccc4n(Cc4ccc(F)cc4)c3c2=O)CC1 |  | inconclusive: 11.2 µM [inhibitor, single point] | 
